# Data from the supplement of paper PMC8728848.
# The list shows a part of the results.
# B1: Epa1-NP-mutant-Y228W (Candida glabrata), Q6VBJ0 (protein)
# chain: MILNPALFLNKCVCIYTTLILLLLTNGGYATSSNDISLASKDPTTFPLGCSPDITTPKKGLSMELYSYDFRKKGSYPCWDAAYLDPNYPRTGYKSHRLLAKVDGVTGNINFYYHATKGCTPQLGHLPASYNYPKPLTMTNFTMLLYGYFRPKVTGFHTFTISADDLLFVNFGAGNAFDCCRRDSSADHFGNYQAYAIWGSKTAKDELTVHLDAGVYYPIRLFYNNREWDGALSFTFKTESNENTVSDFSEYFFSLDDTEEGCPGLISYDSSCASVKTSKIIGIDYHTETPNENLVPITKTIYHLGIPCTGTTTTPLCGSGFYDPLANKCVTINTSSTSSVTKTTSHTTSKEVSFHSSISSQKTLIPKSIPSPYGPIKSQSIPTEMETSSEISSSEYAFSDVISTPSHSPYTKKHSSLNSSSYTSTVIHSLTSYSISQGIFSTSLSEQNITSKSSTDKFSTATSMSNNITQSSIIISQFSTNNENYTTTSMHTSSDKISTETLNNSISTTTSILFSNSSTILKNNTTIISSDKDTHYHPVNPTIVCSTNKTEIICASITQPSISNSNNHWSSSVLKFNSTTVRSTLPSSAGSNETSINVPFSSSTESNTSTSSTSTSNSKMVRSTLPSSAGSNETSISVPFSSSTESNTSTSSTSTSNSKMVRSTLPSSAGSNETSINVPFSSSTESNTSTSSTSTSNSKTVRSTPFSSAGIIMTSLSQRNNKSASSYASSNSKCYNTADSCRKVHSTPSYLLTSSYTSEGVDYDCSLVSTKLKINDTNCVNNKHTTKSCLKTSVTTTIPTLEIKTARKSSSNTIGLHSYPTSSPNKSISSAPIIGYISSFKTIKTASPSYQTSDLTTITTITSLNNPGSTAVENTHESNDKSRKTSSNDISSKHSVIKETKDAVESSNKSHQTNTLKCSSIIIASSSHNSYESLGGTTLTLTLSKVYSPQNNDTLPFLEISEVNPSRTVLPESSKMMQYLTSTEERNKTARNTIATNIVSISTFHFEGEGNAIRMGYTQLLLMLIGIIVMNIGT
# Key:
# Test in all cases: glycan array binding signal (z-score within array); higher = stronger binding
# Conditions in all cases: glycan notation: IUPAC condensed, linker removed; mutation: Y228W
# [1] = biological target: Fuc(a1-2)[GalNAc(b1-3)]Gal
# Summary of the method: (§1)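 The binding signal is a Z-score computed within each array and averaged over linkers. Arrays of the same protein sequence at different concentrations or buffers were also averaged together. Data originate from 3228 arrays in the Consortium for Functional Glycomics database, kept only where the protein sequence was available.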
# Fuc(a1-3)GlcNAc = biological target: Fuc(a1-3)GlcNAc
# Summary of the method: as §1
# [2] = biological target: Fuc(a1-3)[Gal(b1-4)]Glc6S
# Summary of the method: as §1
# [3] = biological target: Fuc(a1-3)[Gal(b1-4)]GlcNAc
# Summary of the method: as §1
# [4] = biological target: Fuc(a1-3)[Gal(b1-4)]GlcNAc(b1-2)Man
# Summary of the method: as §1
# [5] = biological target: Fuc(a1-3)[Gal(b1-4)]GlcNAc(b1-2)Man(a1-3)[Fuc(a1-3)[Gal(b1-4)]GlcNAc(b1-2)Man(a1-6)]Man(b1-4)GlcNAc(b1-4)GlcNAc
# Summary of the method: as §1
# [6] = biological target: Fuc(a1-3)[Gal(b1-4)]GlcNAc(b1-2)Man(a1-3)[Fuc(a1-3)[Gal(b1-4)]GlcNAc(b1-2)Man(a1-6)]Man(b1-4)GlcNAc(b1-4)[Fuc(a1-6)]GlcNAc
# Summary of the method: as §1
# [7] = biological target: Fuc(a1-3)[Gal(b1-4)]GlcNAc(b1-3)Gal(b1-3)[Fuc(a1-4)]GlcNAc
# Summary of the method: as §1
# [8] = biological target: Fuc(a1-3)[Gal(b1-4)]GlcNAc(b1-3)Gal(b1-4)[Fuc(a1-3)]GlcNAc
# Summary of the method: as §1
# [9] = biological target: Fuc(a1-3)[Gal(b1-4)]GlcNAc(b1-3)Gal(b1-4)[Fuc(a1-3)]GlcNAc(b1-3)Gal(b1-4)[Fuc(a1-3)]GlcNAc
# Summary of the method: as §1
# [10] = biological target: Fuc(a1-3)[Gal(b1-4)]GlcNAc(b1-3)GalNAc
# Summary of the method: as §1
# [11] = biological target: Fuc(a1-3)[Gal(b1-4)]GlcNAc(b1-6)GalNAc
# Summary of the method: as §1
# [12] = biological target: Fuc(a1-3)[Gal(b1-4)]GlcNAc(b1-6)[Gal(b1-3)GlcNAc(b1-3)]Gal(b1-4)Glc
# Summary of the method: as §1
# [13] = biological target: Fuc(a1-3)[Gal(b1-4)]GlcNAc6S
# Summary of the method: as §1
# [14] = biological target: Fuc(a1-3)[Gal3S(b1-4)]Glc
# Summary of the method: as §1
# [15] = biological target: Fuc(a1-3)[Gal3S(b1-4)]GlcNAc
# Summary of the method: as §1
# [16] = biological target: Fuc(a1-3)[Gal3S(b1-4)]GlcNAc6S
# Summary of the method: as §1
# [17] = biological target: Fuc(a1-3)[GalNAc(b1-4)]GlcNAc
# Summary of the method: as §1
# [18] = biological target: Fuc(a1-3)[GalNAc(b1-4)]GlcNAc6S
# Summary of the method: as §1
# Fuc(a1-4)GlcNAc = biological target: Fuc(a1-4)GlcNAc
# Summary of the method: as §1
# Fuc(b1-3)GlcNAc = biological target: Fuc(b1-3)GlcNAc
# Summary of the method: as §1
# Gal(a1-2)Gal = biological target: Gal(a1-2)Gal
# Summary of the method: as §1
# Gal(a1-3)Gal = biological target: Gal(a1-3)Gal
# Summary of the method: as §1
# Gal(a1-3)Gal(b1-3)GlcNAc = biological target: Gal(a1-3)Gal(b1-3)GlcNAc
# Summary of the method: as §1
# [19] = biological target: Gal(a1-3)Gal(b1-3)GlcNAc(b1-2)Man
# Summary of the method: as §1
# [20] = biological target: Gal(a1-3)Gal(b1-3)GlcNAc(b1-2)Man(a1-3)[Gal(a1-3)Gal(b1-3)GlcNAc(b1-2)Man(a1-6)]Man(b1-4)GlcNAc(b1-4)GlcNAc
# Summary of the method: as §1
# [21] = biological target: Gal(a1-3)Gal(b1-3)GlcNAc(b1-3)GalNAc
# Summary of the method: as §1
# [22] = biological target: Gal(a1-3)Gal(b1-3)GlcNAc(b1-6)GalNAc
# Summary of the method: as §1
# [23] = biological target: Gal(a1-3)Gal(b1-3)[Fuc(a1-4)]GlcNAc(b1-2)Man(a1-3)[Gal(a1-3)Gal(b1-3)[Fuc(a1-4)]GlcNAc(b1-2)Man(a1-6)]Man(b1-4)GlcNAc(b1-4)GlcNAc
# Summary of the method: as §1
# Gal(a1-3)Gal(b1-4)Glc = biological target: Gal(a1-3)Gal(b1-4)Glc
# Summary of the method: as §1
binder,measurement,setting,value
B1,glycan array binding signal (z-score),[1],-0.367
same,glycan array binding signal (z-score),Fuc(a1-3)GlcNAc,-0.44
same,glycan array binding signal (z-score),[2],-0.135
same,glycan array binding signal (z-score),[3],-0.206
same,glycan array binding signal (z-score),[4],-0.21
same,glycan array binding signal (z-score),[5],-0.215
same,glycan array binding signal (z-score),[6],0.029
same,glycan array binding signal (z-score),[7],-0.286
same,glycan array binding signal (z-score),[8],-0.117
same,glycan array binding signal (z-score),[9],-0.169
same,glycan array binding signal (z-score),[10],0.01
same,glycan array binding signal (z-score),[11],-0.026
same,glycan array binding signal (z-score),[12],-0.326
same,glycan array binding signal (z-score),[13],0.024
same,glycan array binding signal (z-score),[14],-0.123
same,glycan array binding signal (z-score),[15],-0.117
same,glycan array binding signal (z-score),[16],0.109
same,glycan array binding signal (z-score),[17],-0.215
same,glycan array binding signal (z-score),[18],-0.418
same,glycan array binding signal (z-score),Fuc(a1-4)GlcNAc,-0.165
same,glycan array binding signal (z-score),Fuc(b1-3)GlcNAc,-0.358
same,glycan array binding signal (z-score),Gal(a1-2)Gal,-0.306
same,glycan array binding signal (z-score),Gal(a1-3)Gal,0.025
same,glycan array binding signal (z-score),Gal(a1-3)Gal(b1-3)GlcNAc,0.033
same,glycan array binding signal (z-score),[19],-0.098
same,glycan array binding signal (z-score),[20],-0.069
same,glycan array binding signal (z-score),[21],-0.282
same,glycan array binding signal (z-score),[22],-0.177
same,glycan array binding signal (z-score),[23],0.045
same,glycan array binding signal (z-score),Gal(a1-3)Gal(b1-4)Glc,-0.006
